# Laboratory results from the supplement of paper PMC8728848.
# This is one part of the list.
# Key:
# Test in all cases: glycan array binding signal (z-score within array); higher = stronger binding
# Conditions in all cases: glycan notation: IUPAC condensed, linker removed
# [1] = target: Man(a1-2)Man(a1-3)[Man(a1-2)Man(a1-6)]Man(a1-6)[Man(a1-2)Man(a1-2)Man(a1-3)]Man
# Outline: (§1)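 The binding signal is a Z-score computed within each array and averaged over linkers. Arrays of the same protein sequence at different concentrations or buffers were also averaged together. Data originate from 3228 arrays in the Consortium for Functional Glycomics database, kept only where the protein sequence was available.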
# [2] = target: Man(a1-2)Man(a1-3)[Man(a1-2)Man(a1-6)]Man(a1-6)[Man(a1-2)Man(a1-2)Man(a1-3)]Man(b1-4)GlcNAc(b1-4)GlcNAc
# Outline: as §1
# [3] = target: Man(a1-2)Man(a1-3)[Man(a1-6)]Man(a1-6)[Man(a1-2)Man(a1-3)]Man(b1-4)GlcNAc(b1-4)GlcNAc
# Outline: as §1
# [4] = target: Man(a1-2)Man(a1-6)[Man(a1-3)]Man(a1-6)[Man(a1-2)Man(a1-2)Man(a1-3)]Man
# Outline: as §1
# [5] = target: Man(a1-2)Man(a1-6)[Man(a1-3)]Man(a1-6)[Man(a1-2)Man(a1-2)Man(a1-3)]Man(b1-4)GlcNAc(b1-4)GlcNAc
# Outline: as §1
# Man(a1-3)[Man(a1-6)]Man = target: Man(a1-3)[Man(a1-6)]Man
# Outline: as §1
# [6] = target: Man(a1-3)[Man(a1-6)]Man(a1-6)[Man(a1-2)Man(a1-3)]Man(b1-4)GlcNAc(b1-4)GlcNAc
# Outline: as §1
# [7] = target: Man(a1-3)[Man(a1-6)]Man(a1-6)[Man(a1-3)]Man
# Outline: as §1
# [8] = target: Man(a1-3)[Man(a1-6)]Man(a1-6)[Man(a1-3)]Man(b1-4)GlcNAc(b1-4)GlcNAc
# Outline: as §1
# [9] = target: Man(a1-3)[Man(a1-6)]Man(b1-4)GlcNAc(b1-4)GlcNAc
# Outline: as §1
# [10] = target: Man(a1-3)[Man(a1-6)]Man(b1-4)GlcNAc(b1-4)[Fuc(a1-6)]GlcNAc
# Outline: as §1
# Man(a1-6)Man = target: Man(a1-6)Man
# Outline: as §1
# Man(b1-4)GlcNAc = target: Man(b1-4)GlcNAc
# Outline: as §1
# MurNAc(b1-4)GlcNAc = target: MurNAc(b1-4)GlcNAc
# Outline: as §1
# Neu5Ac(a2-3)Gal = target: Neu5Ac(a2-3)Gal
# Outline: as §1
# [11] = target: Neu5Ac(a2-3)Gal(b1-3)GalNAc
# Outline: as §1
# [12] = target: Neu5Ac(a2-3)Gal(b1-3)GalNAc(b1-3)Gal(a1-4)Gal(b1-4)Glc
# Outline: as §1
# [13] = target: Neu5Ac(a2-3)Gal(b1-3)GalNAc(b1-4)[Neu5Ac(a2-3)]Gal(b1-4)Glc
# Outline: as §1
# [14] = target: Neu5Ac(a2-3)Gal(b1-3)GalNAc(b1-4)[Neu5Ac(a2-8)Neu5Ac(a2-3)]Gal(b1-4)Glc
# Outline: as §1
# [15] = target: Neu5Ac(a2-3)Gal(b1-3)GalNAc6S
# Outline: as §1
# [16] = target: Neu5Ac(a2-3)Gal(b1-3)GlcNAc
# Outline: as §1
# [17] = target: Neu5Ac(a2-3)Gal(b1-3)GlcNAc(b1-2)Man
# Outline: as §1
# [18] = target: Neu5Ac(a2-3)Gal(b1-3)GlcNAc(b1-2)Man(a1-3)[GlcNAc(b1-4)][Neu5Ac(a2-3)Gal(b1-3)GlcNAc(b1-2)Man(a1-6)]Man(b1-4)GlcNAc(b1-4)GlcNAc
# Outline: as §1
# [19] = target: Neu5Ac(a2-3)Gal(b1-3)GlcNAc(b1-2)Man(a1-3)[Neu5Ac(a2-3)Gal(b1-3)GlcNAc(b1-2)Man(a1-6)]Man(b1-4)GlcNAc(b1-4)GlcNAc
# Outline: as §1
# [20] = target: Neu5Ac(a2-3)Gal(b1-3)GlcNAc(b1-2)[Neu5Ac(a2-3)Gal(b1-3)GlcNAc(b1-4)]Man(a1-6)[Neu5Ac(a2-3)Gal(b1-3)GlcNAc(b1-2)Man(a1-3)]Man(b1-4)GlcNAc(b1-4)GlcNAc
# Outline: as §1
# [21] = target: Neu5Ac(a2-3)Gal(b1-3)GlcNAc(b1-3)Gal(b1-3)GlcNAc
# Outline: as §1
# [22] = target: Neu5Ac(a2-3)Gal(b1-3)GlcNAc(b1-3)Gal(b1-4)GlcNAc
# Outline: as §1
# [23] = target: Neu5Ac(a2-3)Gal(b1-3)GlcNAc(b1-3)GalNAc
# Outline: as §1
# [24] = target: Neu5Ac(a2-3)Gal(b1-3)GlcNAc(b1-4)Gal(b1-4)Glc
# Outline: as §1
# [25] = target: Neu5Ac(a2-3)Gal(b1-3)GlcNAc(b1-6)GalNAc
# Outline: as §1
# [26] = target: Neu5Ac(a2-3)Gal(b1-3)GlcNAc6S
# Outline: as §1
# [27] = target: Neu5Ac(a2-3)Gal(b1-3)[Fuc(a1-4)]GlcNAc
# Outline: as §1
# [28] = target: Neu5Ac(a2-3)Gal(b1-3)[Fuc(a1-4)]GlcNAc(b1-3)Gal(b1-3)[Fuc(a1-4)]GlcNAc
# Outline: as §1
# [29] = target: Neu5Ac(a2-3)Gal(b1-3)[Fuc(a1-4)]GlcNAc(b1-3)Gal(b1-4)[Fuc(a1-3)]GlcNAc
# Outline: as §1
# [30] = target: Neu5Ac(a2-3)Gal(b1-3)[GlcNAc(b1-6)]GalNAc
# Outline: as §1
# [31] = target: Neu5Ac(a2-3)Gal(b1-3)[Neu5Ac(a2-6)]GalNAc
# Outline: as §1
# [32] = target: Neu5Ac(a2-3)Gal(b1-3)[Neu5Ac(a2-6)]GlcNAc(b1-3)[Fuc(a1-3)[Gal(b1-4)]GlcNAc(b1-6)]Gal(b1-4)Glc
# Outline: as §1
# [33] = target: Neu5Ac(a2-3)Gal(b1-3)]Neu5Ac(a2-3)Gal(b1-4)]GlcNAc
# Outline: as §1
# Neu5Ac(a2-3)Gal(b1-4)Glc = target: Neu5Ac(a2-3)Gal(b1-4)Glc
# Outline: as §1
# [34] = target: Neu5Ac(a2-3)Gal(b1-4)GlcNAc
# Outline: as §1
# [35] = target: Neu5Ac(a2-3)Gal(b1-4)GlcNAc(b1-2)Man
# Outline: as §1
# [36] = target: Neu5Ac(a2-3)Gal(b1-4)GlcNAc(b1-2)Man(a1-3)[GlcNAc(b1-4)][Neu5Ac(a2-3)Gal(b1-4)GlcNAc(b1-2)Man(a1-6)]Man(b1-4)GlcNAc(b1-4)GlcNAc
# Outline: as §1
# [37] = target: Neu5Ac(a2-3)Gal(b1-4)GlcNAc(b1-2)Man(a1-3)[Neu5Ac(a2-3)Gal(b1-4)GlcNAc(b1-2)Man(a1-6)]Man(b1-4)GlcNAc(b1-4)GlcNAc
# Outline: as §1
# [38] = target: Neu5Ac(a2-3)Gal(b1-4)GlcNAc(b1-2)Man(a1-3)[Neu5Ac(a2-3)Gal(b1-4)GlcNAc(b1-2)Man(a1-6)]Man(b1-4)GlcNAc(b1-4)[Fuc(a1-6)]GlcNAc
# Outline: as §1
# [39] = target: Neu5Ac(a2-3)Gal(b1-4)GlcNAc(b1-2)Man(a1-3)[Neu5Ac(a2-6)Gal(b1-4)GlcNAc(b1-2)Man(a1-6)]Man(b1-4)GlcNAc(b1-4)GlcNAc
# Outline: as §1
binder,measurement,setting,value
Thrombomodulin (Mus musculus) (protein) ALAKLQPTGSQCVEHECFALFQGPATFLDASQACQRLQGHLMTVRSSVAADVISLLLSQSSMDLGPWIGLQLPQGCDDPVHLGPLRGFQWVTGDNHTSYSRWARPNDQTAPLCGPLCVTVSTATEAAPGEPAWEEKPCETETQGFLCEFYFTASC,glycan array binding signal (z-score),[1],-0.295
same,glycan array binding signal (z-score),[2],-0.148
same,glycan array binding signal (z-score),[3],-0.462
same,glycan array binding signal (z-score),[4],-0.326
same,glycan array binding signal (z-score),[5],-0.299
same,glycan array binding signal (z-score),Man(a1-3)[Man(a1-6)]Man,0.154
same,glycan array binding signal (z-score),[6],-0.141
same,glycan array binding signal (z-score),[7],-0.178
same,glycan array binding signal (z-score),[8],-0.262
same,glycan array binding signal (z-score),[9],-0.349
same,glycan array binding signal (z-score),[10],0.066
same,glycan array binding signal (z-score),Man(a1-6)Man,0.052
same,glycan array binding signal (z-score),Man(b1-4)GlcNAc,-0.015
same,glycan array binding signal (z-score),MurNAc(b1-4)GlcNAc,-0.27
same,glycan array binding signal (z-score),Neu5Ac(a2-3)Gal,-0.273
same,glycan array binding signal (z-score),[11],1.07
same,glycan array binding signal (z-score),[12],-0.19
same,glycan array binding signal (z-score),[13],-0.4
same,glycan array binding signal (z-score),[14],-0.298
same,glycan array binding signal (z-score),[15],0.053
same,glycan array binding signal (z-score),[16],-0.018
same,glycan array binding signal (z-score),[17],-0.394
same,glycan array binding signal (z-score),[18],-0.095
same,glycan array binding signal (z-score),[19],0.051
same,glycan array binding signal (z-score),[20],0.106
same,glycan array binding signal (z-score),[21],-0.256
same,glycan array binding signal (z-score),[22],-0.414
same,glycan array binding signal (z-score),[23],-0.354
same,glycan array binding signal (z-score),[24],-0.344
same,glycan array binding signal (z-score),[25],0.614
same,glycan array binding signal (z-score),[26],0.198
same,glycan array binding signal (z-score),[27],0.068
same,glycan array binding signal (z-score),[28],-0.3
same,glycan array binding signal (z-score),[29],0.174
same,glycan array binding signal (z-score),[30],-0.106
same,glycan array binding signal (z-score),[31],-0.197
same,glycan array binding signal (z-score),[32],0.263
same,glycan array binding signal (z-score),[33],-0.012
same,glycan array binding signal (z-score),Neu5Ac(a2-3)Gal(b1-4)Glc,2.91
same,glycan array binding signal (z-score),[34],-0.09
same,glycan array binding signal (z-score),[35],-0.06
same,glycan array binding signal (z-score),[36],-0.327
same,glycan array binding signal (z-score),[37],-0.348
same,glycan array binding signal (z-score),[38],-0.085
same,glycan array binding signal (z-score),[39],-0.067
